Results are given in words; binding and its absence hold for the method and conditions named. In cells and extracts the contact can be indirect. Some entries that bind do so weakly or less than the wild type. For part of these data: Sequences can lack the tags named with a protein.
T1: Flag-tagged 14-3-3σ (UniProt O70456)
T1 sequence: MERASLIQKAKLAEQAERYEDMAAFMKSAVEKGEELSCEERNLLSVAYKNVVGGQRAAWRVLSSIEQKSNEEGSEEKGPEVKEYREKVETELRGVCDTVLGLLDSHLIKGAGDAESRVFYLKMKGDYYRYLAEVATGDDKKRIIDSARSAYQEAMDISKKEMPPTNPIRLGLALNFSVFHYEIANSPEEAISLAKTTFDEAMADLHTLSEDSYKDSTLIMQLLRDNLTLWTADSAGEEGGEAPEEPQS

Sequences of proteins named here, by UniProt entry; tags and fusion partners are left off.
UniProt P35222: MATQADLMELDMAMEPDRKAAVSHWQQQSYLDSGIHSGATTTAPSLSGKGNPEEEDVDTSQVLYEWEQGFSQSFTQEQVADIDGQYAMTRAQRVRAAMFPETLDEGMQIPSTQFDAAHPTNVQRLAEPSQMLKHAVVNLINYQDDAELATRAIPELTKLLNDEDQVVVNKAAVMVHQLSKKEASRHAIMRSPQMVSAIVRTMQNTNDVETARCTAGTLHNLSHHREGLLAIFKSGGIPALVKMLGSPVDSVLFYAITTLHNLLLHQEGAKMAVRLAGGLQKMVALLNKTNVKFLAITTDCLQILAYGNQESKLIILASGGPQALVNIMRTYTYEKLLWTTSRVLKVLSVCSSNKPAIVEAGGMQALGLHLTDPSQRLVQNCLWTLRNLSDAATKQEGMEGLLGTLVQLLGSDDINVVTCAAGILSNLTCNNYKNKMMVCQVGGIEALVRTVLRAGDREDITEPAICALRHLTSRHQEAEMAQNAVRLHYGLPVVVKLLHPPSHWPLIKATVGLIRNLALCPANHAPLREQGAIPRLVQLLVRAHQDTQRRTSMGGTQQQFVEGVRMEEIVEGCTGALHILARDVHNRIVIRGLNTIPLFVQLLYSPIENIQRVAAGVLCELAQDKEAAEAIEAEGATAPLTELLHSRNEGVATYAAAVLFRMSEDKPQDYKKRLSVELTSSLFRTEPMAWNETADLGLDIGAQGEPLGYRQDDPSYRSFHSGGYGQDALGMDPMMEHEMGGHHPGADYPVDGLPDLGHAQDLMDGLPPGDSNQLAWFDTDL
UniProt Q9WV60: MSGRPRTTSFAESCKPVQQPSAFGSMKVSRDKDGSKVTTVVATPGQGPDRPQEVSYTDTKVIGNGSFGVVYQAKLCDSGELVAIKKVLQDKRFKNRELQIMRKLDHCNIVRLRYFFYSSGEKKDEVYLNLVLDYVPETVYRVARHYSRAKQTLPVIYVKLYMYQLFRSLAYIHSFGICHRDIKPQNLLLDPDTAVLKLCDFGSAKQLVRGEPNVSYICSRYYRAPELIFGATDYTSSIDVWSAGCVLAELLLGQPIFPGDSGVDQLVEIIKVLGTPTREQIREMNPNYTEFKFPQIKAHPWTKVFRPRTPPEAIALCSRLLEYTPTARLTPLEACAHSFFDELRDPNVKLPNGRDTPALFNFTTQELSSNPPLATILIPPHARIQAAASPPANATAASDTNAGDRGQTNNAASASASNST
UniProt P49841: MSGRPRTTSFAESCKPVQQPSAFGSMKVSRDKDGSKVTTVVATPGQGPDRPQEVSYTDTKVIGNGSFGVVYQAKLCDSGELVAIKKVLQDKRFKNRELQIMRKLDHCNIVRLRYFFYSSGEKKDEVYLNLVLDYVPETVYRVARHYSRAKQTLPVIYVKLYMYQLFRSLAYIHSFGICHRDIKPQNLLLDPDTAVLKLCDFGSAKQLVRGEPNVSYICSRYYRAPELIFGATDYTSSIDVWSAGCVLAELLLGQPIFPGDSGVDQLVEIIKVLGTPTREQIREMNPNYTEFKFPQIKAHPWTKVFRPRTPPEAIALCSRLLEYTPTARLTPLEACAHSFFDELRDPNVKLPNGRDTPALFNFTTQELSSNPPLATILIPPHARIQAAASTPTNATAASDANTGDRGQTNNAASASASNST
UniProt Q02248: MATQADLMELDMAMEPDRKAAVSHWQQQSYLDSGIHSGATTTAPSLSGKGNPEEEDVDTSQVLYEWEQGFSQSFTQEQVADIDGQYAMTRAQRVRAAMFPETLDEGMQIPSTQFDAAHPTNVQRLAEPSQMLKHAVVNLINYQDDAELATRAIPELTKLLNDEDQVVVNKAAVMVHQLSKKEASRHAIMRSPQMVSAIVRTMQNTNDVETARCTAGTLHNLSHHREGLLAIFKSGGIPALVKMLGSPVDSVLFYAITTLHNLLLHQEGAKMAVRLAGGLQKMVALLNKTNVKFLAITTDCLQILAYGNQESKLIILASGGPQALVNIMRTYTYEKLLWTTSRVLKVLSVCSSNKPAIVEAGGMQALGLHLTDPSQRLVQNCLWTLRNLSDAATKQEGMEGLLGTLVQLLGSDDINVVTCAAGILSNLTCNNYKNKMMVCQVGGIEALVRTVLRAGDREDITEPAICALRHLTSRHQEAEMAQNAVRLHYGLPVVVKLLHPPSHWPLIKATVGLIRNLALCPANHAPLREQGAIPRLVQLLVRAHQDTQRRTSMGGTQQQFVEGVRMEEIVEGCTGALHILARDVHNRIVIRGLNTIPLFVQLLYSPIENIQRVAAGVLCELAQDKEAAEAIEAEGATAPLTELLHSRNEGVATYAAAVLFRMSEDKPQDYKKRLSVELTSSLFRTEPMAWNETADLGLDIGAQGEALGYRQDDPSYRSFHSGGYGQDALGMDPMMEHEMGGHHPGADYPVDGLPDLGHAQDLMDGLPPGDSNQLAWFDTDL
UniProt Q61315: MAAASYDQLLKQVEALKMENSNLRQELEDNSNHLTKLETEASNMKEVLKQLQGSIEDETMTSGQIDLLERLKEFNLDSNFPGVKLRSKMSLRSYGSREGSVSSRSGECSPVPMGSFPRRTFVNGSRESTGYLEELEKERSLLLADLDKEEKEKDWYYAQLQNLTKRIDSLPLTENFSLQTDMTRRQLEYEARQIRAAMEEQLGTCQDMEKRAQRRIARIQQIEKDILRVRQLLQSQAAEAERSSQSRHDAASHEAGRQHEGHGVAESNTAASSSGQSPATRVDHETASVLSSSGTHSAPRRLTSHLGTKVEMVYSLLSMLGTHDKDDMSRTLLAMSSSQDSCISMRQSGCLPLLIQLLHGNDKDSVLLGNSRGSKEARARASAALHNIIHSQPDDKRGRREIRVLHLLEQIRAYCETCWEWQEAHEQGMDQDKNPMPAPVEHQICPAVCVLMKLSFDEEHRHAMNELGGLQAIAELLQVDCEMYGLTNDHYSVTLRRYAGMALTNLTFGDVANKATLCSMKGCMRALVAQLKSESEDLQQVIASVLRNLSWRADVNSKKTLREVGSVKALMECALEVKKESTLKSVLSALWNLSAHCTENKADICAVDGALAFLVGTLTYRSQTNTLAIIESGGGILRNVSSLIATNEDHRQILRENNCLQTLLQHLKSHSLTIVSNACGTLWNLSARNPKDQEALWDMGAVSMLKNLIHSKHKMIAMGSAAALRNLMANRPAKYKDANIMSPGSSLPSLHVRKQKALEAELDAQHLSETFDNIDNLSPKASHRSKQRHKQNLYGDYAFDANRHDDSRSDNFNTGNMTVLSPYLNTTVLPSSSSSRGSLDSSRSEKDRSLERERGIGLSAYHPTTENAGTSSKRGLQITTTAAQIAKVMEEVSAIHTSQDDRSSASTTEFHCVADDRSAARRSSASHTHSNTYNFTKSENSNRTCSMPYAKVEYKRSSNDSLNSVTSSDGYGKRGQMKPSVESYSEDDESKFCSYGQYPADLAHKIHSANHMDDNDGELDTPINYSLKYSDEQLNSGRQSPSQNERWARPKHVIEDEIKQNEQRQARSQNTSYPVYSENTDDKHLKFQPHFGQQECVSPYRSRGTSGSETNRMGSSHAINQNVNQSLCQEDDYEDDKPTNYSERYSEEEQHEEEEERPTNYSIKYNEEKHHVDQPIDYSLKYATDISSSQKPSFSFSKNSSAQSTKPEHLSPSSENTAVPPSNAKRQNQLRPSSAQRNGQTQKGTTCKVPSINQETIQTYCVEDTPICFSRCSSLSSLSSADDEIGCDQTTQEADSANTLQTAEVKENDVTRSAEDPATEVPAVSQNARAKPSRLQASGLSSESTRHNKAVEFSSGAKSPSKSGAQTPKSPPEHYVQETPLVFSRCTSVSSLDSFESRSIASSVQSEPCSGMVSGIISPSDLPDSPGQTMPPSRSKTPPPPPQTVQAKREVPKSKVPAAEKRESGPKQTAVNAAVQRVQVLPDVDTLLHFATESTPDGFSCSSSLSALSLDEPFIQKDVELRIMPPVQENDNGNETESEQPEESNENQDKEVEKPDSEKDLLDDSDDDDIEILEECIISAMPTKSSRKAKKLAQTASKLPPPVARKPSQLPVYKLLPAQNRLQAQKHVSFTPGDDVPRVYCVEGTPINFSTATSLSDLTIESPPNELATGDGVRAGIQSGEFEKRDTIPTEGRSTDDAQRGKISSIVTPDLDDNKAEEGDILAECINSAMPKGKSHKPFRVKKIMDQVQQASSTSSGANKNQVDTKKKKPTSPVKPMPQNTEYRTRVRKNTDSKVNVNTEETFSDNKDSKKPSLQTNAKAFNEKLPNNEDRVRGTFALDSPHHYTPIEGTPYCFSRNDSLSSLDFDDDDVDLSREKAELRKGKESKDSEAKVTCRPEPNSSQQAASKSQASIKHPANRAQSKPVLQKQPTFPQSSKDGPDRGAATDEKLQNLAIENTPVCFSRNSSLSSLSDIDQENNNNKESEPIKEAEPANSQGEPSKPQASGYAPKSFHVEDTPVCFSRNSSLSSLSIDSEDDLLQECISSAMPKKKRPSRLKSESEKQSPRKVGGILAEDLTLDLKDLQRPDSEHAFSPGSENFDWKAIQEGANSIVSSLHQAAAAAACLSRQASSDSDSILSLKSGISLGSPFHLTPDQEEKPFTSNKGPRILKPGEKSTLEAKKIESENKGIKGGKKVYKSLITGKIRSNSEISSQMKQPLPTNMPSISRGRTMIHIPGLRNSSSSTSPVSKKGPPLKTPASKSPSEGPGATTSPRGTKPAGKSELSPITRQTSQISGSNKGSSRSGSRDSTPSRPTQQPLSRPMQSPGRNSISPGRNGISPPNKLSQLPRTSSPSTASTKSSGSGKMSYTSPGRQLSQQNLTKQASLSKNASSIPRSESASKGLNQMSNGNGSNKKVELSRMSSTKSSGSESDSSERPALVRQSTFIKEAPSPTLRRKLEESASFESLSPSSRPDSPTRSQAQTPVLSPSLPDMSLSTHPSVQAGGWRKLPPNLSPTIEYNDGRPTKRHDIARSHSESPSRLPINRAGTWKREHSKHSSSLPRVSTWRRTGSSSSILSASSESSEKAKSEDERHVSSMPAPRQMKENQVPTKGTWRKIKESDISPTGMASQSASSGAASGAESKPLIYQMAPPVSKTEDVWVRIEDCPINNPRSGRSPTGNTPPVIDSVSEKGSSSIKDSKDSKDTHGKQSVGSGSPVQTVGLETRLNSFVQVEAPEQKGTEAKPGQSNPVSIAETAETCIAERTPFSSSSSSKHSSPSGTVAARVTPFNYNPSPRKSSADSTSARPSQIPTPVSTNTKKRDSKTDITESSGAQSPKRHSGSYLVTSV


Experiments:
Flag-tagged 14-3-3σ [1] = molecular target: T1, Flag-tagged 14-3-3σ; test: co-IP; CCE cells co-transfected with 14-3-3σ-Flag and GSK-3β WT, S9A or T309A, RIPA lysate; IP with anti-Flag antibody, Western blot with anti-GSK-3β antibody
Flag-tagged 14-3-3σ [2] = molecular target: T1, Flag-tagged 14-3-3σ; test: co-IP; mESCs (CCE; also R1 and D3 for 14-3-3σ) transfected with a Flag-tagged 14-3-3 isoform, lysed in RIPA buffer; IP with anti-Flag antibody, Western blot for endogenous proteins
HA-tagged β-catenin = HA-tagged β-catenin (UniProt P35222); test: co-IP; CCE cells co-transfected with HA-tagged β-catenin with or without 14-3-3σ vector, RIPA lysate; IP with anti-HA antibody, Western blot for GSK-3β, p-GSK-3β, APC, axin
[3] = molecular target: glycogen synthase kinase 3β (GSK-3β), endogenous (mouse (endogenous in CCE, R1 and D3 mESC)) (UniProt Q9WV60); test: co-IP; CCE cells, untransfected or transfected with Flag-14-3-3σ; IP with GSK-3β antibody, Western blot for 14-3-3σ or Flag; cells with or without RA (48 h), Wnt3a (10 ng/mL), DKK-1 (1 ng/mL)

| Molecule | binding (Flag-tagged 14-3-3σ [2]) | binding [3] | other results |
| --- | --- | --- | --- |
| GSK-3β wild-type (WT), transfected (from UniProt P49841 1-420) (enzyme) | – | – | binding (Flag-tagged 14-3-3σ [1]): binds |
| β-catenin, endogenous (from UniProt Q02248 1-781) | no binding | – | – |
| APC (adenomatous polyposis coli), endogenous (from UniProt Q61315 1-2845) | no binding | – | binding (HA-tagged β-catenin): binds |

Now from value to molecule, other results behind:

| binding (Flag-tagged 14-3-3σ [2]) | binding [3] | Molecule | other results |
| --- | --- | --- | --- |
| – | binds | 14-3-3σ, endogenous (protein, UniProt O70456 1-248) MERASLIQKAKLAEQAERYEDMAAFMKSAVEKGEELSCEERNLLSVAYKNVVGGQRAAWRVLSSIEQKSNEEGSEEKGPEVKEYREKVETELRGVCDTVLGLLDSHLIKGAGDAESRVFYLKMKGDYYRYLAEVATGDDKKRIIDSARSAYQEAMDISKKEMPPTNPIRLGLALNFSVFHYEIANSPEEAISLAKTTFDEAMADLHTLSEDSYKDSTLIMQLLRDNLTLWTADSAGEEGGEAPEEPQS | – |
| – | binds | Flag-tagged 14-3-3σ (protein, UniProt O70456 1-248) MERASLIQKAKLAEQAERYEDMAAFMKSAVEKGEELSCEERNLLSVAYKNVVGGQRAAWRVLSSIEQKSNEEGSEEKGPEVKEYREKVETELRGVCDTVLGLLDSHLIKGAGDAESRVFYLKMKGDYYRYLAEVATGDDKKRIIDSARSAYQEAMDISKKEMPPTNPIRLGLALNFSVFHYEIANSPEEAISLAKTTFDEAMADLHTLSEDSYKDSTLIMQLLRDNLTLWTADSAGEEGGEAPEEPQS | – |

— PMC3387134
